In all, about 310,000 compounds went through this assay and about 14,000 (4.5%) showed an effect of 50% or more. The effect is printed as a negative number. This is one part of the list.
target: human ether-à-go-go-related gene (hERG) potassium channel (human, UniProt Q12809); assay: primary screen, population patch clamp on CHO cells stably expressing hERG
Method: Briefly, Chinese hamster ovary (CHO) cells stably expressing the hERG channel were dislodged from tissue culture flasks and dispensed into PPC plates. […] During the recording, background leak currents were estimated by a 100 ms step to -80 mV from an initial holding potential of -70 mV and subtracted from the subsequent current measurement. The campaign was conducted in two phases using slight differences in recording protocol. In the first phase, the initial voltage pulse used a 100 ms step to -30 mV from a holding potential of -70 mV, a 2 s conditioning step to +25 mV, and a 2 s test step to -30 mV. During the second phase of the screen, the potential during the conditioning step was raised to +45 mV. In both phases of the campaign, a secondary voltage pulse was applied using the same parameters as the second phase initial pulse. The initial and secondary pulses were applied in the absence of compound, and upon application of 1 μM and 10 μM test concentrations. […]
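Note: peak tail current of the secondary pulse compared with the same well before compound.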

Sequence of human ether-à-go-go-related gene (hERG) potassium channel (Q12809 whole entry, looked up): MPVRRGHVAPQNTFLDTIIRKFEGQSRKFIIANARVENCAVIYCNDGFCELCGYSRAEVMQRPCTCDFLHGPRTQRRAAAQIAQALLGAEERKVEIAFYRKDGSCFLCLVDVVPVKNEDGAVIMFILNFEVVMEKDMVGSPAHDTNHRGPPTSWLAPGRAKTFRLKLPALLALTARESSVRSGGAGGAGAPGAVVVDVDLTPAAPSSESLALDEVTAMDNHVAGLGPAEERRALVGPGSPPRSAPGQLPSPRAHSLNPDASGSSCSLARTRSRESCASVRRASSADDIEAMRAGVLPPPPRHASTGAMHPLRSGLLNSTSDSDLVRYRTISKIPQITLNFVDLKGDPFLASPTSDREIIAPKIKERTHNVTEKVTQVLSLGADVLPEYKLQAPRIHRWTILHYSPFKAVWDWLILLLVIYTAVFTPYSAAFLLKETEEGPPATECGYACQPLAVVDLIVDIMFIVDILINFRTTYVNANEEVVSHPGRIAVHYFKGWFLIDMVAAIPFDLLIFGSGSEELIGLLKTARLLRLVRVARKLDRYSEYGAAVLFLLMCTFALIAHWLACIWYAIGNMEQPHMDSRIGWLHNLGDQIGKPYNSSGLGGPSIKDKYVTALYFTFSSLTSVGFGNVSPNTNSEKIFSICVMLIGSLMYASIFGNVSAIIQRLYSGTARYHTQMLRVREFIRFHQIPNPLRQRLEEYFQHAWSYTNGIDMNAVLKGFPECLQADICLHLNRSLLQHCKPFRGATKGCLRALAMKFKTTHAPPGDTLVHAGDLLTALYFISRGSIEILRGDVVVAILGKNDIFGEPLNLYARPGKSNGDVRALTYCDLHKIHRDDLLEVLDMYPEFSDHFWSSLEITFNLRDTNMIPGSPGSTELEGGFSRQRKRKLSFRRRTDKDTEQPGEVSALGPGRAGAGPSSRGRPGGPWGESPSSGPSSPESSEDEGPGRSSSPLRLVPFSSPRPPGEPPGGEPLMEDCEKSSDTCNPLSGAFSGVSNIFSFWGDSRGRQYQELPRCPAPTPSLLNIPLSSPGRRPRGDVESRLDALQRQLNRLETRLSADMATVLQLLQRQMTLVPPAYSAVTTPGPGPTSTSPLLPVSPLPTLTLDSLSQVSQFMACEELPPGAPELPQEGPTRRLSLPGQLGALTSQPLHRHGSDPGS

SMILES	hERG current change (%, negative = inhibition) at 10uM [%]
Cc1nn(C)c(C(=O)NNC(=O)Nc2cccc(C(F)(F)F)c2)c1Cl	37.5
Cc1ccc(S(=O)(=O)N2CCNC(=O)CC2)cc1	12.2
CC(C)C(O)C1CCN(Cc2nc(Cc3ccccc3Cl)no2)CC1 (stereo not shown)	11.9
Cc1coc2cc3oc(=O)c(CCC(=O)NC4CC4)c(C)c3cc12	7.02
COc1ccc(NC(=O)C2CCCCN2CC(=O)OCc2ccccc2)cc1OC.O=C(O)C(=O)O (stereo not shown)	-4.79
Nc1ccccc1SC1CC(=O)N(c2ccc3c(c2)OCCO3)C1=O (stereo not shown)	13
COc1ccc(C(=O)N(CN2CCCC2=O)c2nccs2)cc1OC	7.06
C=CCOC(=O)C1=C[C@@H](c2ccc(Br)cc2)C[C@@H](OCCCCO)O1	-44.6
O=C(COc1ccc(Br)cc1)Nc1ccccc1C(=O)N1CCOCC1	-14.2
COc1ccccc1N(CC(=O)NCCN1CCOCC1)S(=O)(=O)c1ccc(C)cc1	-10.1
COc1ccc2cc(-c3[nH]ncc3CN3CCCC3c3nonc3C)ccc2c1 (stereo not shown)	0.998
COCC(C)n1c(COc2ccccc2F)nnc1SCC(=O)c1c(N)n(C)c(=O)n(C)c1=O (stereo not shown)	16.4
CCCC(Oc1ccc(Br)cc1)c1nc2c3cc(OC)c(OC)cc3nc(=S)n2[nH]1 (stereo not shown)	14.5
Cc1c(C(=O)N2CCOCC2)oc2ccccc12	5.05
CC(=O)N/C(=C\c1ccc(F)cc1)C(=O)NC(Cc1ccccc1)C(=O)O (stereo not shown)	15.8
CCC(=O)N1CCN(c2ccc(NC(=O)c3cc4ccccc4o3)cc2Cl)CC1	-67.7
O=C(COC(=O)c1ccccc1C(=O)c1ccc(Cl)cc1)NCc1ccccc1	6.97
COc1cccc(N/C(C)=C/C(=O)c2ccc(Br)cc2)c1	9.55
C=CCn1c(CC(=O)OC)csc1=Nc1ccc(C(C)=O)cc1	-2.98
CCC(Sc1ncccc1Nc1ccccn1)C(=O)O (stereo not shown)	27.1
COC(=O)c1[nH]c2c(c1C)C(=O)CC(c1ccc(C)cc1)C2 (stereo not shown)	8.65
O=c1[nH]c(C2CCCN(S(=O)(=O)c3ccccc3)C2)nc2c1nnn2Cc1ccccc1Br (stereo not shown)	-4.77
Cc1ccc(NC(=O)Nc2ncccc2C)cc1	0.423
COc1cc(CO)ccc1OCc1nnnn1-c1ccc(C)cc1	0.766
COc1cccc(NS(=O)(=O)c2ccc(NC(C)=O)cc2)c1	-9.9
COCCNC(=S)N1CCC(c2nc(-c3ccc(F)cc3)no2)CC1	-18.9
NC(=O)Nc1cccc2ccccc12	14.7
Cl.Clc1ccc(CNCCCSc2ncccn2)cc1Cl	-19.8

SMILES	hERG current change (%, negative = inhibition) at 10uM [%]
Cc1ccc(C2(c3ccccc3)NC(=O)N(CC(=O)NC3(C#N)CCCC3)C2=O)cc1C (stereo not shown)	-63.4
Cc1cc(C(=O)OCC(=O)N(C)c2ccccc2)ccc1[N+](=O)[O-]	-14.4
Cc1c2cnn(CC(=O)Nc3c(F)c(F)cc(F)c3F)c(=O)c2c(C)n1Cc1ccc(F)cc1	7.84
CC(C)Cn1nc(C(=O)Nc2nnc(C3CC3)s2)c2ccccc2c1=O	-48.1
O=C(N/N=C/c1ccncc1)c1ccc(-n2cccc2)cc1	-23.6
Cc1cc(NS(=O)(=O)c2ccc(NC(=O)COc3ccc(Br)cc3)cc2)nc(C)n1	12
Cc1cccc(N(C(=O)CNC(=O)c2cccs2)C(C(=O)NC2CCCC2)c2ccncc2)c1 (stereo not shown)	-3.44
CC1CCCN(C(=O)Cn2c3ccccc3c3nc4n(c(=O)c32)CCS4)C1 (stereo not shown)	-3.59
Cc1onc(-c2ccccc2)c1C(=O)Nc1ccc(C(=O)N2CCCCC2)cc1	10.5
CC1CCCCC1NC(=O)CN1C(=O)NC(C)(c2ccc(OC(F)F)cc2)C1=O (stereo not shown)	-47.2
O=C(NCCc1cccs1)C(c1ccccc1)c1ccccc1	21.1
COc1ccc(CCNC(=O)CCS(=O)(=O)c2ccc3c(c2)oc(=O)n3C)cc1OC	13.1
C=CCN(C(=O)CNC(=O)c1cccs1)C(C(=O)NC1CCCCC1)c1cccnc1 (stereo not shown)	4.85
NC(=S)N/N=C1/CCSc2ccc3ccccc3c21	-23.4
C/C(=N\NC(=O)Nc1ccccc1)c1ccc2ccccc2c1	11.5
Cc1ccc(Nc2nc(OC(C(F)(F)F)C(F)(F)F)nc(N3CCOCC3)n2)cc1	8.16
Cc1ccc2oc(C(=O)N3CCN(C)C[C@@H]3C(C)C)c(C)c2c1	2.17
CO/N=C(\CCC(=O)O)c1cccs1	-1.9
Oc1ccc(/C=N\Nc2nncc(-c3ccccc3)n2)cc1	2.75
O=C(NCc1ccccc1Cl)c1cnccn1	9.67
O=C(CSCc1ccccc1Br)N/N=C/c1ccc2c(c1)OCO2	-5.35
Cc1nn(Cc2ccccc2)c(C)c1C(=O)OCC(=O)c1cc(C)n(C2CC2)c1C	-10.2
Cc1cc(C)n(CCCNC(=O)c2ccc(C)c(S(=O)(=O)N3CCOCC3)c2)n1	2.96
COc1ccc(-c2nnc(SCc3ccc(C(=O)O)cc3)n2C)cc1OC	7.65
COc1ccc([N+](=O)[O-])cc1NC(=O)C(C)N(C)Cc1ccc(Br)cc1 (stereo not shown)	-3.1
COc1cccc(C2NC(=O)NC(C)=C2C(=O)Nc2cc(OC)ccc2OC)c1 (stereo not shown)	-5.53
CS(=O)(=O)Nc1ccc(C2=NN(C(=O)c3ccco3)C(c3ccco3)C2)cc1 (stereo not shown)	-72.3
